According to PubChem BioAssay AID1030 (National Center for Advancing Translational Sciences (NCATS), 2008):
In all, about 220,000 compounds went through this assay and about 16,000 (7.3%) were called active. Inconclusive means that the source gave no clear call. Such entries were picked first, then a sample of the others. Calls follow the shape of the dose curve; as a rule, active = well fitted inhibition curve with a large enough effect (not every such curve was filed as active); inconclusive = small, poorly fitted or top-dose-only effect, or another doubt; inactive = no such curve, though single readings can be large or run the other way. Potencies of inconclusive entries are left out as doubtful fits.

Target: Aldehyde dehydrogenase 1A1 (Homo sapiens) (UniProt P00352)
UniProt P00352, sequence (P00352 whole entry, looked up): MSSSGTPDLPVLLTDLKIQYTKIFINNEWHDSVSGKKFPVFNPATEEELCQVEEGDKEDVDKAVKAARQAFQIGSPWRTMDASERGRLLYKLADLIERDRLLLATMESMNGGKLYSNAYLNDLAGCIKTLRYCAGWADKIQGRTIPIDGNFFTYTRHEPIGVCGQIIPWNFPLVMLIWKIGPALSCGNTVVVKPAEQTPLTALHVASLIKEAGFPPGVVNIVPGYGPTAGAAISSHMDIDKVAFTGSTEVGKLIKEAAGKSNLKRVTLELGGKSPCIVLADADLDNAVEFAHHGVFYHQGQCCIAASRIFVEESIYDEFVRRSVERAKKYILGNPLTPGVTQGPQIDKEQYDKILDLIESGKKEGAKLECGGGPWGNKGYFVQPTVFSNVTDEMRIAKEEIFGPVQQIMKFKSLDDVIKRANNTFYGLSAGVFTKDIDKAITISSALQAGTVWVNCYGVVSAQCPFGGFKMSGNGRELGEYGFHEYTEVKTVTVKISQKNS
Assay: qHTS Assay for Inhibitors of Aldehyde Dehydrogenase 1 (ALDH1A1);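 as to activity, negative = inhibition: plate controls were no enzyme wells and a reference inhibitor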
Settings: Purified ALDH1A1, NADH fluorescence, propionaldehyde substrate; series mostly up to 75.3 µM
Potency is read from the fitted curve at half-maximal effect; tags tell the direction and shape of the fitted curve.

Row | SMILES | Potency | activity, negative = inhibition
1 | COc1ccccc1C(=O)Nc1c2c(nn1-c1cccc(C)c1C)CS(=O)C2 (centres undefined) | inactive | –
2 | Cc1cc(Cl)c(OCCOCCN2CCCCC2)c(Br)c1 | inconclusive [inhibitor, partial curve] | –
3 | CC(C)c1onc(C(=O)Nc2sc3c(c2C#N)CCC3)c1[N+](=O)[O-] | active: 12.6 µM | –
4 | CC(C)(C)[C@]1(O)CCN2CC3c4ccccc4CCc4cccc(c43)[C@@H]2C1 (some centres undefined) | inactive | –
5 | CCC1(CC)Cc2ccccc2-c2nc(NN)[nH]c(=O)c21 | inconclusive [inhibitor, partial curve] | –
6 | Cc1ccc2cc(C(c3nnnn3Cc3ccccc3)N3CCN(c4ccccc4)CC3)c(=O)[nH]c2c1 (centres undefined) | active: 25.1 µM | –
7 | Cc1sc2nc(COC(=O)c3c(F)cccc3F)[nH]c(=O)c2c1C | inactive | –
8 | O=C(NCc1cccs1)c1cccn2c(=O)c3sccc3nc12 | inconclusive [inhibitor, partial curve] | –
9 | COCCN1C=C2C(=O)C(C)(OC(=O)CCC(=O)OC)C(=O)C(Br)=C2C=C1c1ccc(OC)cc1 (centres undefined) | – | inactive: -12% [at 13.5 µM]
10 | COc1ccc([N+](=O)[O-])cc1NC(=O)CC1SC(=Nc2cccc(C)c2C)N(/N=C(\C)c2ccc(C)cc2)C1=O (centres undefined) | inactive | –
11 | COc1ccc(-c2nc3cnc(N4CCN(C)CC4)nc3n(Cc3cccc(OC)c3)c2=O)cc1 | inconclusive [inhibitor, single point] | –
12 | N#CC(c1nc2ccccc2nc1OCCO)S(=O)(=O)c1ccccc1 (centres undefined) | inconclusive [inhibitor, single point] | –
13 | COc1ccccc1-c1nnc(SCC(=O)NCc2cccs2)n1N | inactive | –
14 | CCCn1c(=O)c(C(=O)NNS(=O)(=O)c2ccc(Cl)cc2)c(O)c2ccccc21 | active: 31.6 µM | –
15 | CCOC(=O)CSc1n[nH]c(-c2ccco2)n1 | inactive | –
16 | COc1ccc(C(=O)CSc2nc(C(C)(C)C)nc3ccccc23)cc1 | active: 14.1 µM | –
17 | CCCCCSc1nc2c(c(=O)[nH]c(=O)n2C)n1C(C)C | inconclusive [inhibitor, single point] | –
18 | O=C(Nc1cccc(Cl)c1)N(CCCN1CCOCC1)Cc1ccccc1F | inactive | –
19 | COc1ccc(-c2nc(SC(CC(=O)NCCN3CCOCC3)c3cccs3)n[nH]2)cc1 (centres undefined) | inactive | –
20 | CC1CCN(S(=O)(=O)c2ccc(NC(=O)CN3CCN(C)CC3)cc2)CC1 | inconclusive [inhibitor, partial curve] | –
21 | CN1/C(=C\C(=S)NC(=O)c2ccc([N+](=O)[O-])cc2)C(C)(C)c2ccccc21 | active: 35.5 µM | –
22 | S=c1[nH]nc(-c2cccnc2)n1-c1ccccc1 | active: 7.94 µM | –
23 | Cc1cccc(NC(=O)CSc2nnc(-c3ccco3)c(-c3ccco3)n2)c1C | active: 3.55 µM | –
24 | O=C1OC(C2=CCCCC2)=NC12CC2 | inconclusive [inhibitor, single point] | –
25 | CN(C)S(=O)(=O)c1ccc(C(=O)NCCOc2ccc(F)cc2)cc1 | inconclusive [inhibitor, single point] | –
26 | COc1cccc(CN2CCN(Cc3cccn3-c3cccnc3)CC2CCO)c1 (centres undefined) | inactive | –
27 | CCN(CC)C1CC(=O)N(c2cccc(C)c2)C1=O (centres undefined) | active: 3.55 µM | –

Row | SMILES | Potency | activity, negative = inhibition
28 | NC(=O)Cc1ccc(C(=O)c2ccc(Cl)cc2Cl)s1 | inconclusive [inhibitor, single point] | –
29 | CC1(C)CC(=O)C(C(C2=C(O)CC(C)(C)CC2=O)c2cccnc2)C(=O)C1 (centres undefined) | active: 14.1 µM | –
30 | N#CC1(c2ccccc2)CCCN1C(=O)c1ccco1 (centres undefined) | inconclusive [inhibitor, single point] | –
31 | CN(C)c1ccc(CNC(=O)CN(C)S(=O)(=O)c2cccc3cccnc23)cc1 | inconclusive [inhibitor, single point] | –
32 | CN(C)c1ccc(N=NS(=O)(=O)O)cc1 | active: 10 µM | –
33 | O=C(CSc1nc(C2CC2)nc2sc3c(c12)CCCC3)NCc1ccco1 | inactive | –
34 | Cc1nn(-c2ccccc2)c2c1C(c1ccc(Br)s1)C(C#N)=C(N)O2 (centres undefined) | active: 3.16 µM | –
35 | O=C(Cn1nc(-c2ccc(N3CCOCC3)c([N+](=O)[O-])c2)c2ccccc2c1=O)N1CCCCC1 | inconclusive [inhibitor, single point] | –
36 | COC(=O)c1cc(=O)nc2sc(-c3ccc(F)cc3)nn12 | inconclusive [inhibitor, single point] | –
37 | O=CNc1ccccc1Oc1ccccc1 | inactive | –
38 | CC(C)CN1CCCC2(CCN(C(=O)c3cccn3C)CC2)C1 | inactive | –
39 | CC(NC(=O)c1ccco1)C1COc2ccccc2O1 (centres undefined) | inconclusive [inhibitor, single point] | –
40 | COC(=O)c1sccc1NC(=O)CN(C)NS(=O)(=O)c1ccc(Cl)cc1 | active: 2.51 µM | –
41 | COc1ccc(OC)c(NC(=O)c2cnc3n(c2=O)CCS3)c1 | inconclusive [inhibitor, partial curve] | –
42 | COc1ccc(N2CCN(Cc3cc(=O)oc4cc(C)c(Cl)c(C)c34)CC2)cc1 | inconclusive [inhibitor, single point] | –
43 | O=C(Nc1ccccc1)Nc1ccc(S(=O)(=O)N2CCCCC2)cc1 | inconclusive [inhibitor, single point] | –
44 | O=C(/C=C/Nc1ccccc1F)c1cccs1 | inconclusive [inhibitor, single point] | –
45 | Nc1ccc(N2CCN(C(=O)c3ccco3)CC2)cc1 | inconclusive [inhibitor, single point] | –
46 | CCn1ncc(CNC(=O)CCCSc2nc(-c3ccco3)cc(C(F)(F)F)n2)c1C | inconclusive [inhibitor, single point] | –
47 | COc1cc(/C=C2/C(=N)N3OC(C)=CC3=NC2=O)ccc1OC(=O)c1ccco1 | active: 5.62 µM | –
48 | COc1cc(/C=C2/C(=N)N3C=CSC3=NC2=O)ccc1OCCCOc1ccccc1C | inconclusive [inhibitor, partial curve] | –
49 | CCOC(=O)c1ccc2[nH]c3ccccc3c2c1 | inconclusive [inhibitor, partial curve] | –
50 | COc1ccc(-c2ccc(/C=C3/C(=N)N4C=CSC4=NC3=O)o2)c([N+](=O)[O-])c1 | inactive | –
51 | O=C1c2ccccc2NC(c2ccccc2Cl)N1N=C1CCCCCC1 (centres undefined) | inconclusive [inhibitor, single point] | –
52 | Cc1ccc(-c2nnc(CSc3nncn3N)o2)cc1 | inactive | –
53 | CC1CCC(C(C)C)C(OC(=O)COC(=O)c2cc(O)ccc2N)C1 (centres undefined) | inconclusive [inhibitor, partial curve] | –
54 | O=[N+]([O-])c1ccc(N2CCCCCC2)c(S(=O)(=O)N2CCCCC2)c1 | active: 25.1 µM | –

Row | SMILES | Potency | activity, negative = inhibition
55 | COC(=O)c1cc(COc2ccc3ccc(=O)oc3c2)c(C)o1 | inconclusive [inhibitor, partial curve] | –
56 | O=C(O)CC(Cn1[nH]nnc1=S)c1ccccc1 (centres undefined) | active: 10 µM | –
57 | O=C(CCc1nc2cccnc2n1Cc1ccccc1)NCCc1ccc(Cl)cc1 | inactive | –
58 | O=C(c1cc(O)c(O)c([N+](=O)[O-])c1)c1ccccc1F | active: 12.6 µM | –
59 | O=C(Nc1ccc2nc3n(c(=O)c2c1)CCCC3)c1ccccc1[N+](=O)[O-] | inconclusive [inhibitor, single point] | –
60 | ICCc1ccccc1 | active: 3.55 µM | –
61 | COc1ccc(NC(=O)Nc2ccc(N(C)C)cc2)cc1 | inactive | –
62 | Cc1ccc(N2C(=O)[C@@H]3C(C(=O)CCN4C(=O)c5ccccc5C4=O)=NN[C@@H]3C2=O)cc1 | inconclusive [inhibitor, single point] | –
63 | O=c1nc2ccccc2c2n1CC(CN1CCN(c3ccccc3)CC1)N2 (centres undefined) | inactive | –
64 | Cc1ccc2nc(C(F)C(F)(F)F)[nH]c2c1 (centres undefined) | inactive | –
65 | CCOC(=O)C1=C(C)NC(C)=C(C(=O)OCC)C1c1sccc1C | inactive | –
66 | CCCNS(=O)(=O)c1ccc2c(c1)CCCN2C(C)=O | active: 22.4 µM | –
67 | CN(C)S(=O)(=O)c1ccc(NC(=O)/C=C/c2ccccc2Cl)cc1 | inconclusive [inhibitor, single point] | –
68 | CCN1CCCC1CN(Cc1cc2ccc(C)cc2[nH]c1=O)C(=S)Nc1ccc(F)cc1 (centres undefined) | inactive | –
69 | CCCCC(CC)C(=O)N1CCN(C(=O)c2ccco2)CC1 (centres undefined) | active: 25.1 µM | –
70 | CC1=C(C(=O)OCC(C)C)C(c2ccccc2Cl)NC(=O)N1C (centres undefined) | active: 20 µM | –
71 | C/C(CCc1ccc2c(c1)OCO2)=N\N=C(/N)SC1CC(=O)N(c2ccccc2F)C1=O (centres undefined) | inconclusive [inhibitor, single point] | –
72 | COc1ccc(C2C(C#N)=C(N)Oc3c2c(-c2ccccc2)nn3-c2ccccc2)c(OC)c1OC (centres undefined) | inconclusive [inhibitor, partial curve] | –
73 | S=C(NCc1cccnc1)Nc1cc(Cl)cc(Cl)c1 | inactive | –
74 | O=C(Oc1ccc(Cl)c2cccnc12)N1CCCCC1 | inconclusive [inhibitor, single point] | –
75 | Cc1ccccc1N=Nc1ccc(O)c2ncccc12 | inactive | –
76 | COC(=O)c1ccc(COC(=O)c2ccc(N(C)C)cc2)cc1 | active: 25.1 µM | –
77 | CS(=O)(=O)N1CC(C(=O)NN)Oc2ccc(Cl)cc21 (centres undefined) | inconclusive [inhibitor, partial curve] | –
78 | COc1ccc(Nc2nc(C)c(-c3ccccc3)s2)cc1 | active: 25.1 µM | –
79 | O=C(Nc1cccc(S(=O)(=O)N2CCOCC2)c1)c1cnccn1 | inactive | –
